This is one part of the list. At the low end of the ranking the order means little.

For this experiment, the target named is T1, GST-Rok-C97-191 (UniProt O34857).
T1 sequence: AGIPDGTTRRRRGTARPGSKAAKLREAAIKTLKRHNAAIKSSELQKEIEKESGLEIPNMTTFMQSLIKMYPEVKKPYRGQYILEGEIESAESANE
The experiment is described as follows: protein binding microarray.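 Further: rank score from −0.5 (least bound) to 0.5 (best bound).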 The conditions noted are these: Rok is a gene silencer of Bacillus subtilis; high values mean tight binding; most listed sequences are background and not binding sites; double strand, one strand shown.
On to CTGAGGCA, for which the binding signal was -0.168 E-score. GTAAATAC displayed a binding signal of 0.336 E-score.

As for GGCTATAC, the binding signal is -0.00424 E-score.

As for CCCTAGGA, the binding signal was -0.175 E-score. For CGAGGCAG the value was -0.215 E-score. In the case of GGTTTGTA, the binding signal amounted to 0.169 E-score. The sequence GATCTTCC gave a binding signal of 0.0218 E-score. Take AGAGTGTC: the binding signal is -0.0737 E-score.

As for ATTCATTG, the binding signal worked out at 0.105 E-score.

As to CACTCCTG, the binding signal was -0.247 E-score. As for GCGAAACA, the figure is -0.109 E-score; as for GCCGACCA, -0.195 E-score; as for ATCTCCTC, 0.059 E-score. As for ATGACTCG, the figure is -0.021 E-score. As for GTAGAGTA, the figure is 0.297 E-score. With ATATTCGG, the binding signal amounted to 0.0383 E-score.

Take ATTCTCCA: the binding signal was found to be 0.131 E-score.

Consider CTTGCAAG, for which the binding signal was determined as 0.00252 E-score. As for ACAACACT, the figure is 0.223 E-score. As for AGAGCCTA, the binding signal was -0.0282 E-score. AACTGTCC showed a binding signal of 0.0229 E-score.

For GCCGGATA, the binding signal is 0.146 E-score. For GGTGCCGA the value was -0.297 E-score; for ACATGGAC, -0.00942 E-score; for GCCTGCGA, -0.254 E-score. For the sequence ACACGGGC, the binding signal came out at 0.0191 E-score.

Take GGGCGGCA: the binding signal is -0.319 E-score.

In the case of GGGCATTA, the binding signal is -0.117 E-score. For CGCCCAAA the value was -0.114 E-score; for CATGATAC, 0.0758 E-score; for GCGTAGGA, 0.0265 E-score. For AGAGGCTG the value was -0.199 E-score; for ACCATGCG, -0.0709 E-score; for GAAGCTAA, -0.056 E-score.

With GGATGTCA, the binding signal is -0.04 E-score. For the sequence ATTTATCA, the binding signal was 0.229 E-score. As to CAAACTCG, the binding signal is -0.0543 E-score.

Turning to CCTTTTCG, the binding signal is 0.0618 E-score. Take GCGTTGGA: the binding signal is -0.178 E-score. As for CTATGGGA, the figure is -0.243 E-score.

Take AGCCTTTA: the binding signal is -0.0414 E-score.

Regarding GTTTTCAA, the binding signal was -0.105 E-score.

Consider AAGAGACC, for which the binding signal is -0.126 E-score. In the case of CACATGTA, the binding signal was 0.162 E-score.

Regarding ATTTGCAA, the binding signal was determined as 0.0774 E-score. As for GATTCGTA, the figure is 0.149 E-score; as for ATGGGGAG, -0.37 E-score; as for CTTGTGGC, -0.167 E-score. As for GGTGGCTA, the figure is 0.0901 E-score; as for CGGCCATA, -0.0978 E-score.

Turning to AACCGGGA, the binding signal was -0.285 E-score. As for ACGAGGCG, the figure is -0.133 E-score; as for ACGCGCGA, 0.0223 E-score. For CGGCGTCC the value was -0.151 E-score; for AACCCGGG, -0.252 E-score.

In the case of CCCGTAGG, the binding signal was -0.124 E-score. For GAGGTGAA the value was -0.154 E-score; for AGAGTTTC, -0.0267 E-score; for CACGTAAC, -0.0392 E-score.

In the case of CCCTGTCA, the binding signal was -0.229 E-score. For the sequence TGGATTAA, the binding signal was 0.0948 E-score. Regarding ACGTCCCG, the binding signal was -0.242 E-score. In turn, GGTAAAAC showed a binding signal of 0.121 E-score. For GGCACAAC, the binding signal is -0.141 E-score. For AGACAAAT the value was -0.0166 E-score; for AAAGGCAT, -0.0738 E-score.

For the sequence GGACCACA, the binding signal was -0.0476 E-score. For AAGCCTGG the value was -0.197 E-score.

Take ACATTCCC: the binding signal is -0.0621 E-score. As for ACTTGGGG, the figure is 0.0337 E-score. Take CAAGCAGC: the binding signal was -0.31 E-score. For GGGCAGGA, the binding signal was -0.228 E-score. As for ATGAAAAA, the figure is -0.0951 E-score; as for AAACAGCT, 0.0832 E-score. In the case of CCCCGGGA, the binding signal was -0.232 E-score. As for ACGTTCAT, the figure is -0.0242 E-score; as for ACGTATAG, 0.226 E-score.

As for CTCCAATC, the binding signal was -0.0262 E-score. The sequence ATTAATCG displayed a binding signal of 0.109 E-score. AATTTAGA gave a binding signal of 0.198 E-score. For ACTTATGA the value was 0.192 E-score; for ATGTCACA, -0.00652 E-score; for GCTCTCCC, -0.216 E-score.

As to AGGCAAGA, the binding signal was -0.255 E-score. As for AGATTCCG, the figure is 0.131 E-score. For ACGATGAT the value was 0.0117 E-score. Sequence ATCAAGAT yielded a binding signal of 0.0161 E-score. As for GCCCACCC, the binding signal was -0.242 E-score. Turning to CAGGGTAG, the binding signal is -0.0513 E-score. As to CCGTTCAG, the binding signal was -0.00769 E-score.

As for CTGGGACC, the binding signal is -0.219 E-score.

On to ACTCCCTC, for which the binding signal was -0.0848 E-score. With CGATGACG, the binding signal is -0.128 E-score. Regarding AAAGTTAC, the binding signal is 0.0701 E-score. As for AACTGTAA, the figure is 0.168 E-score; as for CCGCCAAA, -0.219 E-score; as for CAATCGTC, -0.159 E-score. The sequence ACGATGAA displayed a binding signal of 0.00189 E-score. Take GACATGCC: the binding signal is 0.0128 E-score. For the sequence ACGAATTC, the binding signal was found to be 0.072 E-score. Take AAGTTTAC: the binding signal is -0.0631 E-score. Turning to CAGGGTTC, the binding signal was -0.203 E-score. For GTAGGCCA the value was -0.0884 E-score. For ACGGAACA the value was -0.144 E-score; for ACGTGTAC, -0.0357 E-score; for GTCCAGTA, 0.143 E-score. Regarding ATAGATCG, the binding signal was determined as 0.132 E-score. As for GGCGATTA, the binding signal was -0.109 E-score. For CGCTGTAA the value was 0.164 E-score; for AAATTCGG, 0.083 E-score. For ATCTATAA the value was 0.355 E-score; for AACGCCCG, -0.065 E-score; for CTGGCATC, -0.101 E-score. Turning to GTCTACAC, the binding signal is -0.042 E-score. Consider CGCACGCA, for which the binding signal is -0.217 E-score. As for TGATAGAA, the binding signal came to 0.385 E-score.

As for GTCGCGAC, the binding signal is -0.0778 E-score. In the case of AGGACAGA, the binding signal was -0.11 E-score. As for CAAATAAG, the figure is 0.0433 E-score; as for CGCCGTTA, -0.19 E-score; as for AACGGATA, -0.00876 E-score. For GGAGGTAC the value was 0.014 E-score. As for ACGCGAGG, the binding signal is -0.269 E-score.

On to ACATTGTC, for which the binding signal worked out at 0.0195 E-score. For CGCACGAA the value was 0.0122 E-score; for ACACAGTG, 0.0988 E-score; for AACCGCTG, -0.311 E-score. As to CTCTTGAA, the binding signal was -0.261 E-score. As for ACCGAGGA, the binding signal is -0.259 E-score. As for CACGCAAG, the figure is -0.148 E-score; as for GATTAGAA, -0.0111 E-score. As for ACCATCAT, the binding signal came out at 0.0551 E-score.

Regarding GCCGGTTA, the binding signal is -0.173 E-score.

Take CTTCATGA: the binding signal is -0.151 E-score. In turn, ACACATAC had a binding signal of 0.256 E-score. As for ATCAGTTG, the figure is 0.0096 E-score. For the sequence CACTCCTA, the binding signal was determined as 0.107 E-score. ACCTATAC: the binding signal amounted to 0.166 E-score. As for AGATTGAA, the binding signal is -0.0266 E-score.

In the case of AAAAAGGC, the binding signal is -0.00272 E-score. On to CAGGAAAA, for which the binding signal was -0.0662 E-score. CATACCGG had a binding signal of 0.153 E-score.

In the case of GCCTTAAA, the binding signal is -0.0724 E-score.

For the sequence AAGTCTGT, the binding signal is -0.0588 E-score. For CAATGCAC the value was -0.0287 E-score; for AACGATAG, 0.199 E-score.

In turn, AGAGATAG registered a binding signal of 0.188 E-score. For AGGTGAAG, the binding signal is -0.109 E-score. With TCAATTCA, the binding signal came out at 0.0501 E-score. For AGGAGAGG the value was -0.272 E-score; for TGTGATAA, 0.0773 E-score. On to CCGGCCAG, for which the binding signal is -0.249 E-score. For GAGCGATA the value was 0.0452 E-score. As for TCTTTCAA, the figure is -0.0733 E-score; as for ACACATCG, -0.04 E-score. In the case of AGGGGTAT, the binding signal is -0.0357 E-score.

Regarding CACGCTTA, the binding signal was -0.0235 E-score. As for CGCCGGTC, the figure is -0.256 E-score. As for CTTCCTCA, the figure is -0.0806 E-score; as for AACGGGCG, 0.000722 E-score. AAGATTAA came in with a binding signal of 0.0955 E-score.

For the sequence CCATCGGC, the binding signal is -0.0744 E-score. For CAAGCAAC the value was -0.113 E-score; for CGCGCACC, -0.106 E-score; for GCCCTCCC, -0.412 E-score. On to AGGCCCTC, for which the binding signal was -0.337 E-score. As for GAGATAAC, the figure is 0.247 E-score; as for CGTGCCCC, -0.27 E-score; as for AAGATATA, 0.347 E-score. As for TAGCTATA, the figure is 0.292 E-score; as for AGCCATCG, -0.206 E-score. As for TCTTGTAA, the figure is 0.182 E-score.

(Values after article PMC6212790.)
